Measurements published in patent US20210238308A1 (Chugai, published 2021).

B1: MRAH-G1d/MRAL-KT0 E345L (antibody, human IgG1, kappa)
heavy: QVQLQESGPGLVRPSQTLSLTCTVSGYSITSDHAWSWVRQPPGRGLEWIGYISYSGITTYNPSLKSRVTMLRDTSKNQFSLRLSSVTAADTAVYYCARSLARTTAMDYWGQGSLVTVSS[human IgG1 constant region with E345L (EU numbers) omitted here]
light: DIQMTQSPSSLSASVGDRVTITCRASQDISSYLNWYQQKPGKAPKLLIYYTSRLHSGVPSRFSGSGSGTDFTFTISSLQPEDIATYYCQQGNTLPYTFGQGTKVEIKRTVAAPSVFIFPPSDEQLKSGTASVVCLLNNFYPREAKVQWKVDNALQSGNSQESVTEQDSKDSTYSLSSTLTLSKADYEKHKVYACEVTHQGLSSPVTKSFNRGEC
B2: MRAH-G1d/MRAL-KT0 E345M (antibody, human IgG1, kappa)
heavy: QVQLQESGPGLVRPSQTLSLTCTVSGYSITSDHAWSWVRQPPGRGLEWIGYISYSGITTYNPSLKSRVTMLRDTSKNQFSLRLSSVTAADTAVYYCARSLARTTAMDYWGQGSLVTVSS[human IgG1 constant region with E345M (EU numbers) omitted here]
light: B1 light
B3: MRAH-G1d/MRAL-KT0 E345N (antibody, human IgG1, kappa)
heavy: QVQLQESGPGLVRPSQTLSLTCTVSGYSITSDHAWSWVRQPPGRGLEWIGYISYSGITTYNPSLKSRVTMLRDTSKNQFSLRLSSVTAADTAVYYCARSLARTTAMDYWGQGSLVTVSS[human IgG1 constant region with E345N (EU numbers) omitted here]
light: B1 light
B4: MRAH-G1d/MRAL-KT0 E345P (antibody, human IgG1, kappa)
heavy: QVQLQESGPGLVRPSQTLSLTCTVSGYSITSDHAWSWVRQPPGRGLEWIGYISYSGITTYNPSLKSRVTMLRDTSKNQFSLRLSSVTAADTAVYYCARSLARTTAMDYWGQGSLVTVSS[human IgG1 constant region with E345P (EU numbers) omitted here]
light: B1 light
B5: MRAH-G1d/MRAL-KT0 E345Q (antibody, human IgG1, kappa)
heavy: QVQLQESGPGLVRPSQTLSLTCTVSGYSITSDHAWSWVRQPPGRGLEWIGYISYSGITTYNPSLKSRVTMLRDTSKNQFSLRLSSVTAADTAVYYCARSLARTTAMDYWGQGSLVTVSS[human IgG1 constant region with E345Q (EU numbers) omitted here]
light: B1 light
B6: MRAH-G1d/MRAL-KT0 E345R (antibody, human IgG1, kappa)
heavy: QVQLQESGPGLVRPSQTLSLTCTVSGYSITSDHAWSWVRQPPGRGLEWIGYISYSGITTYNPSLKSRVTMLRDTSKNQFSLRLSSVTAADTAVYYCARSLARTTAMDYWGQGSLVTVSS[human IgG1 constant region with E345R (EU numbers) omitted here]
light: B1 light
B7: MRAH-G1d/MRAL-KT0 E345S (antibody, human IgG1, kappa)
heavy: QVQLQESGPGLVRPSQTLSLTCTVSGYSITSDHAWSWVRQPPGRGLEWIGYISYSGITTYNPSLKSRVTMLRDTSKNQFSLRLSSVTAADTAVYYCARSLARTTAMDYWGQGSLVTVSS[human IgG1 constant region with E345S (EU numbers) omitted here]
light: B1 light
B8: MRAH-G1d/MRAL-KT0 E345T (antibody, human IgG1, kappa)
heavy: QVQLQESGPGLVRPSQTLSLTCTVSGYSITSDHAWSWVRQPPGRGLEWIGYISYSGITTYNPSLKSRVTMLRDTSKNQFSLRLSSVTAADTAVYYCARSLARTTAMDYWGQGSLVTVSS[human IgG1 constant region with E345T (EU numbers) omitted here]
light: B1 light
B9: MRAH-G1d/MRAL-KT0 E345V (antibody, human IgG1, kappa)
heavy: QVQLQESGPGLVRPSQTLSLTCTVSGYSITSDHAWSWVRQPPGRGLEWIGYISYSGITTYNPSLKSRVTMLRDTSKNQFSLRLSSVTAADTAVYYCARSLARTTAMDYWGQGSLVTVSS[human IgG1 constant region with E345V (EU numbers) omitted here]
light: B1 light
B10: MRAH-G1d/MRAL-KT0 E345W (antibody, human IgG1, kappa)
heavy: QVQLQESGPGLVRPSQTLSLTCTVSGYSITSDHAWSWVRQPPGRGLEWIGYISYSGITTYNPSLKSRVTMLRDTSKNQFSLRLSSVTAADTAVYYCARSLARTTAMDYWGQGSLVTVSS[human IgG1 constant region with E345W (EU numbers) omitted here]
light: B1 light
B11: MRAH-G1d/MRAL-KT0 E345Y (antibody, human IgG1, kappa)
heavy: QVQLQESGPGLVRPSQTLSLTCTVSGYSITSDHAWSWVRQPPGRGLEWIGYISYSGITTYNPSLKSRVTMLRDTSKNQFSLRLSSVTAADTAVYYCARSLARTTAMDYWGQGSLVTVSS[human IgG1 constant region with E345Y (EU numbers) omitted here]
light: B1 light
B12: MRAH-G1d/MRAL-KT0 H433A (antibody, human IgG1, kappa)
heavy: QVQLQESGPGLVRPSQTLSLTCTVSGYSITSDHAWSWVRQPPGRGLEWIGYISYSGITTYNPSLKSRVTMLRDTSKNQFSLRLSSVTAADTAVYYCARSLARTTAMDYWGQGSLVTVSS[human IgG1 constant region with H433A (EU numbers) omitted here]
light: B1 light
notes: copies: 2 + 2
B13: MRAH-G1d/MRAL-KT0 H433D (antibody, human IgG1, kappa)
heavy: QVQLQESGPGLVRPSQTLSLTCTVSGYSITSDHAWSWVRQPPGRGLEWIGYISYSGITTYNPSLKSRVTMLRDTSKNQFSLRLSSVTAADTAVYYCARSLARTTAMDYWGQGSLVTVSS[human IgG1 constant region with H433D (EU numbers) omitted here]
light: B1 light
notes: copies: 2 + 2
B14: MRAH-G1d/MRAL-KT0 H433E (antibody, human IgG1, kappa)
heavy: QVQLQESGPGLVRPSQTLSLTCTVSGYSITSDHAWSWVRQPPGRGLEWIGYISYSGITTYNPSLKSRVTMLRDTSKNQFSLRLSSVTAADTAVYYCARSLARTTAMDYWGQGSLVTVSS[human IgG1 constant region with H433E (EU numbers) omitted here]
light: B1 light
notes: copies: 2 + 2

Target: T1, human FcRn (human, UniProt P55899 fragment; P61769 fragment, limits assumed)
T1 construct: also called hFcRn
Experiment: SPR, Protein L capture

T1 sequence (P55899 24-290 limits assumed, form in doubt, chain 1 of 2): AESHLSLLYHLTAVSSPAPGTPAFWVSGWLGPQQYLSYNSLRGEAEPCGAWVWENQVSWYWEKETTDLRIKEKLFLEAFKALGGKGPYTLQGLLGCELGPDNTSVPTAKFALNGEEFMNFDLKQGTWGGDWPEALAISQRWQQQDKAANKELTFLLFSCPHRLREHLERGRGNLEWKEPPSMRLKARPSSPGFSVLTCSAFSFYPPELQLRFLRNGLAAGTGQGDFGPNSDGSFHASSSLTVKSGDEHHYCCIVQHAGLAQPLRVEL
T1 sequence (P61769 21-119 limits assumed, form in doubt, chain 2 of 2, further chain): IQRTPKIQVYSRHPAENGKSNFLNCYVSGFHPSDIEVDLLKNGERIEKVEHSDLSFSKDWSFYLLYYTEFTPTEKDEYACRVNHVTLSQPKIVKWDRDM

| Binder | hFcRn binding level ratio (variant/control antibody) |
| --- | --- |
| B1 | 0.86 |
| B2 | 0.13 |
| B3 | 0.79 |
| B4 | 0.88 |
| B5 | 0.29 |
| B6 | 0.76 |
| B7 | 0.9 |
| B8 | 0.91 |
| B9 | 0.92 |
| B10 | 0.91 |
| B11 | 0.89 |
| B12 | 1.07 |
| B13 | 0.48 |
| B14 | 0.55 |

Target: T2, PRYSPRY domain of mouse TRIM21 with N-terminal 6xHis tag (mouse)
T2 construct: Expressed in E. coli; also called mTRIM21; mouse TRIM21.PRYSPRY
T2 chain: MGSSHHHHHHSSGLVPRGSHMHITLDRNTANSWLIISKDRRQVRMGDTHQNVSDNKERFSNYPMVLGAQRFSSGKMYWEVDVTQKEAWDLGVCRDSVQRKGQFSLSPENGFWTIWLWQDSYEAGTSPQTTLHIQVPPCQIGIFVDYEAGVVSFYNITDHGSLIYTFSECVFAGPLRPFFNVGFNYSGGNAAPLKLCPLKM
Experiment: SPR, Protein L capture

| Binder | mTRIM21 binding level ratio (variant/control antibody) |
| --- | --- |
| B1 | 2.36 |
| B2 | 2.74 |
| B3 | 2.76 |
| B4 | 2.41 |
| B5 | 2.92 |
| B6 | 2.37 |
| B7 | 2.88 |
| B8 | 2.85 |
| B9 | 2.33 |
| B10 | 2.59 |
| B11 | 2.66 |
| B12 | -0.25 |
| B13 | -0.188 |
| B14 | -0.098 |

Target: T3, PRYSPRY domain of human TRIM21 with N-terminal 6xHis tag (human)
T3 construct: Expressed in E. coli; also called hTRIM21; human TRIM21.PRYSPRY
T3 chain: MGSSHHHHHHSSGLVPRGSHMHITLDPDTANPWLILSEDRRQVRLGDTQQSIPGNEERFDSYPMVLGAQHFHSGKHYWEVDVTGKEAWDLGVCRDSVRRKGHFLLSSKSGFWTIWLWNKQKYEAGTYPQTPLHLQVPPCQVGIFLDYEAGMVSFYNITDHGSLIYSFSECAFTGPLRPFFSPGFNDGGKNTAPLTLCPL
Experiment: SPR, Protein L capture

| Binder | hTRIM21 binding level ratio (variant/control antibody) |
| --- | --- |
| B1 | 0.459 |
| B2 | 0.638 |
| B3 | 0.665 |
| B4 | 0.53 |
| B5 | 0.657 |
| B6 | 0.073 |
| B7 | 0.989 |
| B8 | 0.887 |
| B9 | 0.422 |
| B10 | 0.516 |
| B11 | 0.6 |
| B12 | -0.054 |
| B13 | -0.009 |
| B14 | 0.008 |
